In paper PMC4336329 (PLoS ONE, 2015):
Out of some 310,000 compounds screened, about 2,200 (0.71%) showed an effect of 50% or more. The effect is printed as a negative number. The list shows a part of the results.

The compounds below were run against human ether-à-go-go-related gene (hERG) potassium channel (human, UniProt Q12809) (assay: primary screen, population patch clamp on CHO cells stably expressing hERG).
Chain of human ether-à-go-go-related gene (hERG) potassium channel (Q12809 whole entry, looked up): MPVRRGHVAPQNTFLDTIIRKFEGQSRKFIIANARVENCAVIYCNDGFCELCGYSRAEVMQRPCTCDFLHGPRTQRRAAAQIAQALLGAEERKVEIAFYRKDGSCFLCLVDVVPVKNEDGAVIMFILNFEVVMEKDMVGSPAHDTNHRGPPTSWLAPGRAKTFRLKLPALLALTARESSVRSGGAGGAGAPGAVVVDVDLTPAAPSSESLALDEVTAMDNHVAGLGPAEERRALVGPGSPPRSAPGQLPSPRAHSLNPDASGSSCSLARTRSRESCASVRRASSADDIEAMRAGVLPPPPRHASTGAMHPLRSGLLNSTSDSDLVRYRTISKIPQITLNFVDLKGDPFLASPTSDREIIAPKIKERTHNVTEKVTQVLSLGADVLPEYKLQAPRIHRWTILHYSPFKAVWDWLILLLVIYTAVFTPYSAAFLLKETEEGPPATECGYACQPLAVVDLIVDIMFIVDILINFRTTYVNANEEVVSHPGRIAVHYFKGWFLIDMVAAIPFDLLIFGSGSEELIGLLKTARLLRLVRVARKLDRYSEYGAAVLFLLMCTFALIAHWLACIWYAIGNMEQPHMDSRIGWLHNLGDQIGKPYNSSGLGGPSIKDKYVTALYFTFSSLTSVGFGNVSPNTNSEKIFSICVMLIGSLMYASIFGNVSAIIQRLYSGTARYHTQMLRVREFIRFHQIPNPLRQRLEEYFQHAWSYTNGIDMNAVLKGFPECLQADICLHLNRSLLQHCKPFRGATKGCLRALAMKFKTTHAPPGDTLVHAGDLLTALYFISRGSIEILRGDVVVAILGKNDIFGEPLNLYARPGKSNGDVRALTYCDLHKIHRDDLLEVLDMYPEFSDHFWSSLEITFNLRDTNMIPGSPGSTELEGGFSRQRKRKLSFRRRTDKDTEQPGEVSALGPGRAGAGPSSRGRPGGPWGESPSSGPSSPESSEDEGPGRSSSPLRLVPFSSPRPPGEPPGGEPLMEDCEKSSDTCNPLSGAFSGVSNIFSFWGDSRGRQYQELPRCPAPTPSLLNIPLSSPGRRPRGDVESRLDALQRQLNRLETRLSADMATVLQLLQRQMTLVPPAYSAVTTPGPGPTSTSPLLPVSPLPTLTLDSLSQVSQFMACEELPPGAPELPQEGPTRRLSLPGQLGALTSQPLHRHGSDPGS

SMILES | hERG current change (%, negative = inhibition) at 1uM [%]
CC(=O)N1c2ccc(Cl)cc2C2OCCC2C1c1ccco1 (centres unmarked) | 14.9
O=C(Cc1ccc(Cl)cc1)Nc1ccccc1CO | 10.8
COC(=O)c1cc2c(ccn2-c2ccc(F)cc2)n1Cc1ccc(OC)cc1 | 0.901
COc1cccc(CNC(=O)C(=O)NCCC2CCCCN2S(=O)(=O)c2ccccc2)c1 (centres unmarked) | -9.44
CCCN(CC(=O)Nc1cccc(Br)c1)CC(=O)Nc1ccc(F)c(F)c1F | 12.1
CSCC[C@H](NC(=O)C1CCCC1)c1nc2ccccc2[nH]1 | 14.8
CC1CCC2C(=O)N(c3ccc(NC4CCCCC4)c([N+](=O)[O-])c3)C(=O)C2C1 (centres unmarked) | 2.74
CN1C(=O)C2(c3ccccc31)c1c(oc3ccccc3c1=O)C(=O)N2CCCO (centres unmarked) | 14
CC(O)(CS(=O)(=O)Cc1ccc(Cl)cc1)C(=O)Nc1cccc(C(F)(F)F)c1 (centres unmarked) | 5.57
COC(=O)C1(C)NC(c2ccccc2OC)C2C(=O)N(c3ccccc3)C(=O)C21 (centres unmarked) | 11.1
COc1cccc(/C=N/NC(=O)c2cc3c(OC)cccc3[nH]2)c1O | 21.1
COc1ccc(CCNS(=O)(=O)c2ccc(F)cc2)cc1OC | 7.53
COc1ccc(N(C)C(=O)Nc2ccc3c(c2)nnn3C)cc1 | 11
COc1ccccc1NC(=O)COC(=O)[C@@H]1CCCN1C(=O)c1cccs1 | -6.5
COC(=O)c1nc(NC(C)=O)n[nH]1 | 8.34
COC(=O)C1=C(N)OC(C)=C(C(C)=O)C12C(=O)N(C)c1ccccc12 (centres unmarked) | 3.92
CC(=O)Nc1ccc(NC(=O)CC(NC(=O)c2ccccc2)c2ccccc2)cc1 (centres unmarked) | 11.7
Cc1ccc(NC(=O)CCN2CCN(C)CC2)cc1.Cl | 14.9
C=CCn1c(CCc2cc(C(C)(C)C)c(O)c(C(C)(C)C)c2)n[nH]c1=S | 14.6
CC1CCN(c2nc(Cl)nc(Nc3ccc([N+](=O)[O-])cc3)n2)CC1 | 4.37
Cc1sc2nc(-c3ccc(Br)cc3)oc(=O)c2c1C | 12.8
O=C(CNC(=O)c1cccs1)N/N=C/c1c(F)cccc1Cl | 21.4
CC(C)CN1CCC(=O)N([C@H](CSc2ccccc2)Cc2ccccc2)CC1 | -27.8

SMILES | hERG current change (%, negative = inhibition) at 1uM [%]
O=S(=O)(Cc1ccc(Cl)cc1)c1ncc(CO)n1Cc1ccccc1 | 4.54
CN(C)S(=O)(=O)c1ccc(N2CCCC2)c(C(=O)NNC(=O)c2ccc(Br)cc2)c1 | 3
C=CCn1c(=O)c2ccccc2n2c(SCC(=O)Nc3sc(C(=O)N(CC)CC)c(C)c3C(=O)OCC)nnc12 | -1.5
CC12CC(c3ccccc3O1)C(C(=O)N1CCOCC1)C(=O)N2 (centres unmarked) | 0.187
O=C(CN1CCN(S(=O)(=O)c2ccccc2)CC1)NCc1ccccc1 | 15.2
CCCOc1nc2c(c(=O)n(C)c(=O)n2C)n1CCC | 14.6
Cn1c(=O)c2ncn(CC(=O)NCCC3=CCCCC3)c2n(C)c1=O | 9.17
C/C=C\C=C\C(=O)N1CC2(CC(c3cccc(NC(=O)CC(c4ccccc4)c4ccccc4)c3)=NO2)C[C@H]1C(N)=O (some centres unmarked) | -0.331
Cc1c(Cl)cccc1NC(=O)CCN1CCOCC1 | 22.1
Oc1ccc(/C=N/n2cc(-c3ccccc3)[nH]c2=S)cc1 | 7.7
CCCCCCNc1c([N+](=O)[O-])c(=O)sc2ccccc12 | 14.1
Cc1ccc(S(=O)(=O)N2CCCC(C(=O)NCc3ccco3)C2)cc1Cl (centres unmarked) | 6.95
Cc1cc(C)c2oc(C(=O)NCc3ccccc3)cc(=O)c2c1 | 17
O=c1[nH]c(O)c(N=Nc2ccc(SC(F)F)cc2)c(=O)[nH]1 | 4.58
Cc1ccc(NS(=O)(=O)c2ccc(NS(=O)(=O)c3cccs3)cc2)cc1 | 18
C#CCOCCOCCOCCNc1nc(N2CCOCC2)nc(N2CCN(C(=O)CCCCCCCCCCNC(=O)Cn3cc(CCCCCN)nn3)CC2)n1 | 14.2
CCOC(=O)N1CCN(C(=O)c2ccc3c(Cl)c4c(nc3c2)CCCC4)CC1 | -1.71
COc1ccc(Cc2nc3ccc(C(=O)N(C)C(C)c4nccs4)cc3o2)cc1 (centres unmarked) | 16.5
COCCCN1C(=O)C(=O)/C(=C(/O)c2ccc(OC(C)C)c(C)c2)C1c1ccncc1 (centres unmarked) | 3.05
O=C(N=Nc1c(O)[nH]c2ccc(Br)cc12)c1ccccc1-n1cccc1 | 0.48
COc1ccc(NC(=O)N2CCN(c3nc4ccccc4n3C(C)C)CC2)cc1 | 10.2
CC(OC(=O)C1=Cc2ccccc2OC1)C(=O)NC(C)(C)C (centres unmarked) | 19.7
CCOc1ccc(C(=O)NC(C(=O)NCC(c2cccs2)N(C)C)C(C)C)cc1 (centres unmarked) | 5.72

SMILES | hERG current change (%, negative = inhibition) at 1uM [%]
Cn1c(O)c(C=Nc2cccc(C(F)(F)F)c2)c(=O)n(C)c1=O | 13.2
C=CCSc1nnc(C)n1-c1ccc(Cl)cc1 | 9.72
O=S(=O)(NCc1ccccn1)c1ccccn1 | 3.23
C/C(=N\Nc1cccc([N+](=O)[O-])c1)c1ccccc1O | 6.66
CCOc1ccccc1NC(=O)c1ccc(S(=O)(=O)N(C)c2ccccc2)cc1 | 6.05
O=C(NCCCn1ccnc1)/C(=C/c1cccnc1)NC(=O)c1ccco1 | 7.85
S=c1[nH]nc(-c2cc(-c3ccco3)[nH]n2)n1-c1ccccc1 | 3.15
CCOC(=O)c1cc(-c2ccccc2)n(CC(=O)NC(C)(C)C)c1C | 7.97
CC(C)(C)C(=O)NC(=C(Cl)Cl)P(=O)(O)O | 13.2
CC(C)C1(C)C(=O)N=C2c3ccccc3C(=O)N21 (centres unmarked) | 12.8
CCC1Oc2ccc(C)cc2N(CC(=O)N(Cc2ccc3c(c2)OCO3)CC2CCCO2)C1=O (centres unmarked) | -2.42
COc1ccc(S(=O)(=O)N2CCOC2CNC(=O)C(=O)NCc2cccnc2)cc1OC (centres unmarked) | 4.87
CC(=O)c1ccc(N2CCN(C(=O)CCCn3c(=O)[nH]c4ccc(Br)cc4c3=O)CC2)cc1 | 1.18
O=C(NCC(c1ccco1)N1CCOCC1)c1ccccc1 (centres unmarked) | 19.5
CC1CCCCC1NC(=O)Cn1nnc(-c2ccc(Cl)cc2)n1 (centres unmarked) | 5.44
COc1ccc(NC(=O)CNC(=O)c2ccco2)cc1 | 10.1
COc1ccc(/C=N/NC(=O)c2nn(C)cc2Br)cc1CSCc1ccco1 | -14.4
CCc1cc(=O)[nH]c(SCC(=O)N2CCCC2)n1 | 6.42
Cc1nc(COc2cccc(Cl)c2)sc1C(=O)/C=C/N(C)C | 2.94
Cc1ccc(C)c(NC(=O)Cn2nnc(C(=O)NCc3ccco3)c2N)c1 | 3.02
CCN(C(=O)c1cc2c(=O)n3ccccc3nc2n1CCCOC)C1CCCCC1 | 2.38
Cc1ccc(Sc2nc(C)c([N+](=O)[O-])c(C)c2C#N)cc1 | 13
O=C1C2ON(c3ccccc3)C(c3ccccn3)C2C(=O)N1c1ccc(Br)cc1 (centres unmarked) | 6.82

SMILES | hERG current change (%, negative = inhibition) at 1uM [%]
CCNc1nc(NCC)nc(N(n2cnnc2)S(=O)(=O)c2ccc(C)cc2)n1 | -2.64
COc1cc(O)c(C(CCN2CCCC2)c2cc(OC)c(OC)c(OC)c2)c(OC)c1 (centres unmarked) | 11.6
CN(CC(=O)Nc1ccccc1C(F)(F)F)C(=O)C1=COCCO1 | 12.4
CC1CC(Nc2cccc(O)c2)=CC(=O)O1 (centres unmarked) | 3.57
O=C(C1CC1)N1CCc2cc(Br)cc(S(=O)(=O)NCCCN3CCCCC3)c21 | 6.97
CSc1ccccc1NC(=O)c1cccs1 | 3.13
NC(=O)C1CCN(C(=O)CSCc2ccccc2Cl)CC1 | 9.01
Cc1ccc(-n2c(C)nnc2SCC(=O)NNC(=O)c2ccco2)cc1 | 15.2
O=C(N/C(=C/c1cccc([N+](=O)[O-])c1)C(=O)N1CCCCC1)c1ccco1 | -3.64
Cc1ccc(NC(=O)CSc2nc3[nH]ncc3c(=O)[nH]2)c(C)c1 | 9.49
COc1ccc(CN2CC(C(=O)NCCC3=CCCCC3)CC2=O)cc1 (centres unmarked) | 7.38
CC(C)(C#N)C(C)(C)c1nn[nH]n1 | -3
CCNC(=S)NCCN1CCOCC1 | 13.4
COCCn1c(N)c(C(=O)NS(=O)(=O)c2ccc(C)cc2)c(=O)[nH]c1=O | 10.8
O=C(CCn1c(=O)oc2ccccc21)NCCCN1CCOCC1 | 15.2
OCCCn1c(CCNc2nc(-c3ccc(F)cc3)cs2)nc2cc(C(F)(F)F)ccc21 | -0.5
COc1ccccc1N1CCN(Cc2ccc(-c3ccccc3[N+](=O)[O-])o2)CC1 | -0.996
O=C(Cc1cccc2ccccc12)NNC(=O)c1cccs1 | 8.9
O=C1CCN(CCc2ccccc2)CCN1[C@H](CSc1ccc(Br)cc1)Cc1ccccc1 | -25.8
Cc1cc(C(=O)OCC(=O)N2C(C)CCCC2C)c(C)o1 (centres unmarked) | 9.75
